# According to the supplement of paper PMC7335073:
# Whole data set: some 4,100 sequences, median “relative CpG methylation activity (normalised to average over all NNNCGNNN flanks)” near 0.94, cut for the highest 2% near 1.9. The list shows a part of the results.
# Target: DNMT3B catalytic domain (mouse) (UniProt O88509)
# Assay: relative CpG methylation activity (normalised to average over all NNNCGNNN flanks) (relative (1 = mean)); higher = more methylation of the central CpG
# Conditions: system: in vitro, murine catalytic domain; CpG state: hemimethylated substrate pool; residues: 558-859
# Protocol: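 Deep enzymology: a pool of dsDNA substrates with a central CpG flanked by 10 random nucleotides on each side was methylated by the murine DNMT3A or DNMT3B catalytic domain (0.8 mM SAM, 37 °C, 60 min). Methylation was then read out by hairpin ligation, bisulfite conversion and NGS. Values are the average methylation of each NNNCGNNN context (±3 flanks; the outer flanks are random and averaged over), normalised to the overall mean, so 1 = average activity.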
# Chain of UniProt O88509 (O88509 558-859): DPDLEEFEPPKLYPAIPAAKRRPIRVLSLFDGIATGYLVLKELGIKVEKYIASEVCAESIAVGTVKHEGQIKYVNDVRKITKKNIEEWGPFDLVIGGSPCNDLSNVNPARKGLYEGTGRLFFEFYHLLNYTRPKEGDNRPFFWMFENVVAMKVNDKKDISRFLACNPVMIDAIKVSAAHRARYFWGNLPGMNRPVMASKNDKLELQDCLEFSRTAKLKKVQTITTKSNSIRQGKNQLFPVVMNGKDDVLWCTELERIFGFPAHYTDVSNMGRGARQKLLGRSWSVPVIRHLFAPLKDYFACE
row,Sequence,relative CpG methylation activity
1,CGGCGGTA,0.751
2,TGGCGCTC,0.412
3,TTTCGCCA,1.16
4,AGACGTTT,0.684
5,ACTCGTAA,0.372
6,TCCCGGGG,1.21
7,CGTCGGTG,1.12
8,GCACGTTC,0.971
9,GAGCGCCC,0.746
10,CGGCGAGG,1.14
11,AACCGAGC,1.38
12,TAACGCGT,1.09
13,TGCCGACT,0.879
14,GTGCGATA,1.36
15,GTACGGTA,1.61
16,ATCCGAAA,1.31
17,CCGCGAGG,0.979
18,GGGCGAGA,0.861
19,TACCGTGG,0.0942
20,TCGCGTAC,0.844
21,CGTCGTTA,0.361
22,GCTCGGAG,0.646

row,Sequence,relative CpG methylation activity
1,TTCCGGCA,1.86
2,GTTCGAGA,1.5
3,CTTCGCTT,0.81
4,TTCCGTCA,1.04
5,GCTCGTCT,0.699
6,CACCGCAA,0.27
7,TGACGAAC,1.26
8,CCACGTCC,1.45
9,TCTCGTTG,0.301
10,TTACGGCT,1.98
11,CGACGGCA,1.82
12,GAACGACA,1.15
13,CCCCGACG,1.29
14,ACGCGTGT,0.432
15,ATTCGCAA,0.43
16,AGCCGGGT,0.543
17,GACCGACT,0.866
18,TCGCGGCT,1.49
19,ATACGAAT,1.64
20,ACGCGACC,0.905
21,CGTCGAGC,1.52
22,ACACGTCG,1.08

row,Sequence,relative CpG methylation activity
1,CGACGCGT,0.874
2,GACCGAAC,1.15
3,GCTCGGTG,1.4
4,AACCGAGT,1.12
5,GGGCGTTC,0.448
6,ATCCGTCA,0.948
7,ACCCGTGG,0.234
8,ACACGGAA,1.12
9,GACCGCGT,0.291
10,GGCCGGAG,0.286
11,AGCCGGCT,0.979
12,ACCCGACT,1.18
13,GTGCGCTG,0.753
14,TCACGTTC,1.01
15,AGTCGAGT,1.57
16,TAACGATT,1.71
17,CTGCGCGC,1.06
18,CCGCGCAT,0.647
19,CAGCGCAT,0.601
20,ATACGGTT,1.38
21,GACCGGAC,0.694
22,CAGCGGAG,0.402

row,Sequence,relative CpG methylation activity
1,GACCGACC,1.13
2,GTTCGTGA,0.411
3,GCGCGAAA,0.857
4,GCTCGGAA,0.89
5,TCTCGCAG,0.278
6,TCTCGCCC,1.01
7,GGTCGCCG,0.646
8,CATCGGCG,1.72
9,ATGCGGAC,0.76
10,TATCGGAC,1.02
11,CGTCGGTT,1.17
12,GCTCGTGT,0.224
13,TGTCGGCG,1.48
14,ACCCGGAC,1.06
15,ACGCGGGC,1.12
16,CCACGGAC,1.39
17,AGTCGCTA,0.567
18,TGCCGAAC,0.962
19,GACCGTAC,0.724
20,TGTCGTGA,0.114
21,TCACGTTT,0.884
22,AACCGTGA,0.218

row,Sequence,relative CpG methylation activity
1,TCGCGCAT,0.385
2,CGTCGGCC,1.54
3,ACCCGTAA,0.449
4,GTACGTAC,1.42
5,CATCGGCA,1.83
6,TTTCGGGC,1.54
7,AAGCGAGT,1.05
8,CTACGTGT,1
9,ATCCGCTC,0.971
10,TTTCGAGC,1.69
11,TAGCGCGT,0.628
12,AAACGCGA,0.809
13,TTCCGTAG,0.417
14,GAGCGCCT,0.683
15,CAACGAAG,1.13
16,ACACGTCC,1.38
17,TTTCGATG,1.48
18,GAACGAAA,1.34
19,TCACGTCC,1.24
20,GAGCGCGG,0.24
21,TTCCGTAT,0.673
